In US7384907B2, “Method of treating infection with ABl tyrosine kinase inhibitors” (Duke University, priority 2002, dated 2008):

Assays:
[1] = tested on: Shigella flexneri 2457T; test: Gentamicin protection assay, Shigella flexneri 2457T uptake into Hela cells; conditions: 10 μM, p value=0.0018
[2] = tested on: Shigella flexneri 2457T; test: Gentamicin protection assay, Shigella flexneri 2457T uptake into mouse embryo fibroblasts (Abl/Arg or Null); conditions: Null cells (lacking Abl and Arg), 10 μM
[3] = tested on: Crk and cortactin tyrosine phosphorylation; test: Immunoprecipitation and immunoblotting of Crk and cortactin tyrosine phosphorylation in Shigella-infected Hela cells; conditions: Hela cells pre-treated with STI571, infected with Shigella flexneri 2457T
[4] = tested on: Abl; conditions: following stimulation of the PDGF receptor; cited from earlier work
[5] = tested on: PLCγ; conditions: cited from earlier work

Cc1ccc(NC(=O)c2ccc(CN3CCN(C)CC3)cc2)cc1Nc1nccc(-c2cccnc2)n1 [STI571]
Reduction in uptake of Shigella flexneri 2457T [1]: 47%
Effect on bacterial uptake [2]: no significant effect
Tyrosine phosphorylation of Crk (tyrosine 221) [3]: decrease

COc1ccc2c(c1)CC[C@@H]1[C@@H]2CC[C@]2(C)[C@@H](NCCCCCCN3C(=O)C=CC3=O)CC[C@@H]12 [U73122]
Effect on catalytic activation of Abl [4]: blocks
Effect on signaling pathways induced during Shigella invasion [5]: blocks
